Measured values as given in PubChem BioAssay AID485344 (National Center for Advancing Translational Sciences (NCATS), 2010).
Screen size: about 340,000 compounds; about 6,900 (2%) were called active. No stated cut-off is given here; in the data, active means inhibition above about 30%; inactive means below that, where a call was filed. The entries are a selection whose mix differs from that of the whole data set. Where no call is shown, the source filed none.

molecular target: D(2) dopamine receptor (Homo sapiens) (UniProt P14416); assay: HTS Assay for Allosteric Antagonists of the Human D2 Dopamine Receptor: Primary Screen for Antagonists; settings: HEK293 TREx D2 cells, calcium flux, dopamine EC80; at 10 µM; stronger effect = higher value; further: 0% is about no effect
Outline: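 Compounds are added to dye-loaded, induced HEK293 T-REx cells coupled to calcium release via D2; after a 3 min kinetic read an EC80 dopamine stimulus is given and fluorescence is recorded for 3 more min.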

Chain of UniProt P14416 (P14416 whole entry, looked up): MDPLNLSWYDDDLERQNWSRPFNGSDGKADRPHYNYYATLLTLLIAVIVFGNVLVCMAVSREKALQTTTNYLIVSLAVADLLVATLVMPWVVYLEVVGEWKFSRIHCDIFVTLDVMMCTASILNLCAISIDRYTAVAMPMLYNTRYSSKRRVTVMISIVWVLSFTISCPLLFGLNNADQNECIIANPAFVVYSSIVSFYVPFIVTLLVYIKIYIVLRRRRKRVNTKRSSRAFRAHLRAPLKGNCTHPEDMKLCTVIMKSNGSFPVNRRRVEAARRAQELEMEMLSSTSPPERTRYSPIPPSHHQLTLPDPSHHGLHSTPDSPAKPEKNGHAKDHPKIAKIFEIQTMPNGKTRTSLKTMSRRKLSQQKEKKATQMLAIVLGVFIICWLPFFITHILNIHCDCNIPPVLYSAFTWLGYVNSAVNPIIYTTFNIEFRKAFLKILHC

Row | SMILES | inhibition
1 | Cc1ccc(CNC(=O)c2ccc3c(c2)NC(=O)C(CS(=O)(=O)Cc2cccc(F)c2)N3)cc1 (stereo not given) | 12.1%
2 | Cc1ccc(N2C(=O)C(CC(=O)Nc3ccc(F)cc3)N(Cc3ccc4c(c3)OCO4)C2=O)cc1 (stereo not given) | 20.9%
3 | COc1cc([C@@H]2Nc3c(F)cccc3[C@@H]3C=CC[C@@H]32)cc(Br)c1OC | -3.56%
4 | Cc1c(C(=O)O)oc2c1-c1nn(Cc3ccccc3Cl)cc1CC2 | -0.0492%
5 | COc1ccc2c(Sc3ccc(C)cc3)c(C(=O)NC(C)c3ccccc3)[nH]c2c1 (stereo not given) | 18.8%
6 | Cc1ccc(NC(=O)CC(c2ccc(F)cc2)N2Cc3ccccc3C2=O)cc1C (stereo not given) | 0.968%
7 | Cc1c(C(=O)NCc2ccc(Cl)cc2)sc2nc3n(c(=O)c12)CCC3 | 19.3%
8 | COc1ccc(-c2nc3n(n2)C(c2ccccc2)C(C(=O)Nc2cccnc2)=C(C)N3)cc1 (stereo not given) | -21.5%
9 | COCCNC(=O)CN1C(=O)CCn2nc(-c3cn(C)c4ccccc34)cc21 | 0.325%
10 | CCS(=O)(=O)N1CCc2cc(C(=O)NCc3ccc(C)cc3)ccc21 | 19.6%
11 | O=C(CSc1nc2c([nH]c3ccccc32)c(=O)n1-c1ccc(F)cc1)Nc1ccc2c(c1)OCCO2 | -6.84%
12 | Cc1cccc(-c2cc(-c3ccccc3)nc(SCC(=O)Nc3ccccc3)c2C#N)c1 | 5.37%
13 | Cc1ccc(S(=O)(=O)N(CC(O)Cn2c3ccccc3c3ccccc32)c2cccc(C(=O)NCCO)c2)cc1 (stereo not given) | 10.9%
14 | O=C(O)c1cnn(-c2nc(-c3cccc([N+](=O)[O-])c3)cs2)c1C(F)(F)F | active: 31.2%
15 | CCC(Cn1nnc2ccccc2c1=O)NC(=O)Nc1ccccc1Cl (stereo not given) | 8.08%
16 | Cn1cccc1-c1cc2n(n1)CCC(=O)N2CC(=O)Nc1ccc(F)cc1Cl | -12.9%
17 | CCCCOc1ccc(C(=O)Nc2ccc3c(c2)N(C(C)=O)CCC3)cc1 | 0.654%
18 | CCOc1cc(CNc2ccc(O)cc2)cc(Cl)c1OCc1ccccc1 | -1.74%
19 | Cc1ccc(S(=O)(=O)N2CCCc3cc(NC(=O)c4cccc(Cl)c4)ccc32)cc1 | 2%
20 | Cn1nc(-c2ccccc2F)c2cc(C(=O)N3CCN(c4ccccc4F)CC3)sc21 | 8.85%

Row | SMILES | inhibition
21 | CCOc1ccc(NC(=O)c2cc3nc(-c4ccc(OC)cc4)cc(C(F)(F)F)n3n2)cc1 | 10.5%
22 | CCOC(=O)c1c(C)[nH]c(C)c1S(=O)(=O)N1CCC(C(=O)NCc2ccc(OC)cc2)CC1 | 0.223%
23 | COCCCNc1nc2c(-c3cccc(Br)c3)nnn2c2ccccc12 | 14.5%
24 | CC(=O)c1coc2ccc(OCCN3CCCCC3)cc12 | active: 41.8%
25 | CCC(=O)NCc1nc2ccccc2n1Cc1ccccc1 | 2.94%
26 | CCC(Sc1nc2ncccc2[nH]1)C(=O)Nc1ccccc1F (stereo not given) | -4.43%
27 | COc1ccccc1NC(=O)N1CCCC1 | active: 33.1%
28 | O=C(OCC1CCCO1)c1ccc2c(c1)N(Cc1ccc(F)cc1)C(=O)c1ccccc1S2(=O)=O (stereo not given) | -3.25%
29 | COc1cc(OC)c(N(C)C(=O)c2cc3c(s2)-c2ccccc2OC3)cc1Cl | 4.16%
30 | COc1ccc2c(CNCc3cccs3)c(C(=O)O)n(Cc3ccccc3C)c2c1 | 8.16%
31 | CCOC(=O)N1CCc2c(sc3c2c(=O)n(-c2ccccc2)c(=O)n3CC(=O)Nc2ccc(OC)cc2OC)C1 | -7.84%
32 | CCOc1ccc(OCC)c(NC(=O)c2cc(S(=O)(=O)N3CCCC3)cn2C)c1 | -1.57%
33 | CCOc1ccc(NC(=O)CCc2c(C)nc3nc(C)nn3c2C)cc1 | -0.978%
34 | COC(=O)C(CCSC)NC(=O)C1CCN(c2ncnc3c2nc2n3CCCCC2)CC1 (stereo not given) | 6.78%
35 | Fc1ccc(-n2ncc3c(NC4CCCCCC4)ncnc32)cc1 | 4.73%
36 | CCOC(=O)c1c(NC(=O)CCCOc2ccccc2C)sc2c1CCC(C)C2 (stereo not given) | -3.33%
37 | CCNC(=O)CC1C(=O)N(c2ccc(F)cc2)C(=O)N1CCOC (stereo not given) | -12.5%
38 | COc1ccccc1CNC(=O)c1ccc(Cn2c(SCc3ccccc3)nc3cccnc32)cc1 | 27.9%
39 | CCOc1ccc(C(=O)N2CCC(c3nnc(-c4ccccc4OC)o3)CC2)cc1 | 2.43%
40 | CC1OC(OC2C(OC3C(O[C@H]4CC[C@]5(C)C6C=C[C@]78OC[C@@]9(CC[C@@H](C)[C@H](C)C97)[C@H](O)C[C@@]8(C)[C@]6(C)CC[C@H]5C4(C)C)OC(C)C(O)C3O)OC(CO)C(O)C2O)C(O)C(O)C1O (stereo not given in full) | active: 31.6%

Row | SMILES | inhibition
41 | O=C(CCc1ccccc1)NCc1nc2cccnc2n1Cc1ccc(F)cc1 | -8.82%
42 | N#Cc1ccccc1CN1C(=O)c2ccccc2Sc2ccc(C(=O)OCc3ccco3)cc21 | -23.6%
43 | CCOc1ccc(NC(=O)C(CC)n2c(=O)c(-c3ccccc3NC(C)=O)nc3ccccc32)cc1 (stereo not given) | 8.74%
44 | Cc1ccc(CNC(=O)Cn2cc(S(=O)(=O)Cc3ccccc3Cl)c3ccccc32)cc1 | -5.85%
45 | COc1ccccc1OCCSc1nc(-c2ccc(C(C)(C)C)cc2)nc2cc(=O)[nH]n12 | -0.661%
46 | O=C(CCOc1ccccc1)N(Cc1cccnc1)c1nc2c(F)cc(F)cc2s1 | -15.8%
47 | Nc1nnc(SCC(=O)Nc2ccc(Cl)cc2)s1 | -14.8%
48 | COc1ccc(CNC(=O)c2cnc3sc(N4CCOCC4)nn3c2=O)cc1 | 15.8%
49 | COc1cc(OC)c(NC(=O)N2CCSc3ccccc32)cc1Cl | 12%
50 | COc1ccc(C(=O)Nc2cc3c(cc2C(=O)c2ccccc2Cl)OCCO3)cc1 | 3.03%
51 | Cc1cc(Cl)ccc1NC(=O)c1cccc(NC(=O)N2CCSc3ncccc32)c1 | -7.34%
52 | O=C(CSC1=Nc2ccccc2C2=NC(CCC(=O)NC3CCCCC3)C(=O)N12)Nc1cccc(C(F)(F)F)c1 (stereo not given) | 3.16%
53 | CCc1ccccc1N1CC(c2nc3ccccc3n2CCCOc2ccc(Cl)cc2)CC1=O (stereo not given) | -1.64%
54 | COc1cc(OC)c(NC(=O)c2csc3c2CCC(C)C3)cc1Cl (stereo not given) | -0.793%
55 | CCOc1ccccc1NC(=O)Cn1c(=O)n(CCC(=O)NCc2ccc3c(c2)OCO3)c(=O)c2ccccc21 | -6.74%
56 | COc1ccccc1CNC(=O)c1cc2cc3ccc(Cl)cc3nc2o1 | -5.58%
57 | COc1ccccc1N1CCN(c2ccc(NC(=O)c3ccc(C)cc3)cc2C(=O)O)CC1 | 17.8%
58 | Cc1c(CNC2CCCCC2)c(C(=O)O)c(C)n1Cc1c(F)cccc1Cl | 2.41%
59 | Cc1ccc(NC(=O)CCCn2c(=O)c3cccn3c3ccccc32)c(Cl)c1 | -2.37%
60 | Cc1cc2oc(C(=O)Nc3ccc(S(=O)(=O)N(C)Cc4ccccc4)cc3)cc(=O)c2cc1C | -9.79%
